Several values for one entry are separate records, joined by “and”; a condition that tells them apart may be missing. Equal entries are not always repeated. Screen size: about 220,000 compounds; about 16,000 (7.3%) were called active. The inconclusive results got no clear call from the source; some entries with a clear call stand among them for comparison. Calls follow the shape of the dose curve; as a rule, active = well fitted inhibition curve with a large enough effect (not every such curve was filed as active); inconclusive = small, poorly fitted or top-dose-only effect, or another doubt; inactive = no such curve, though single readings can be large or run the other way. Potencies of inconclusive entries are left out as doubtful fits.
biological target: Aldehyde dehydrogenase 1A1 (Homo sapiens) (UniProt P00352); assay: qHTS Assay for Inhibitors of Aldehyde Dehydrogenase 1 (ALDH1A1); conditions: Purified ALDH1A1, NADH fluorescence, propionaldehyde substrate; series mostly up to 75.3 µM;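 as to activity, negative = inhibition: plate controls were no enzyme wells and a reference inhibitor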
Potency is read from the fitted curve at half-maximal effect; tags tell the direction and shape of the fitted curve.

Chain of UniProt P00352 (P00352 whole entry, looked up): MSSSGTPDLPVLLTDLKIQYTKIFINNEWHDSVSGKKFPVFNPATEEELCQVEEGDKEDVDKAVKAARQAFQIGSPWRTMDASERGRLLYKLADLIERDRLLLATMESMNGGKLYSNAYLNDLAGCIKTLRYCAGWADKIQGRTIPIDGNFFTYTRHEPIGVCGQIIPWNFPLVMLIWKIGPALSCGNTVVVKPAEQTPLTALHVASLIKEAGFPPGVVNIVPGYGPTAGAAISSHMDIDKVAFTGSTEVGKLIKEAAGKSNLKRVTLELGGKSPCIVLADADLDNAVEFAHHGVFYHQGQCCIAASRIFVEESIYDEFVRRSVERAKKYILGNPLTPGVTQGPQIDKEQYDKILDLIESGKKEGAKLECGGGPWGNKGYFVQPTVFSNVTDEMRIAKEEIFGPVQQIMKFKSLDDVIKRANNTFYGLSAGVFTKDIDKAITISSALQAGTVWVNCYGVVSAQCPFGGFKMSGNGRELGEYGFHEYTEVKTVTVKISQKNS

Question: How did the Potency turn out when `Cn1c(SCC(=O)Nc2sc3c(c2C#N)CCC3)nnc1C1COc2ccccc2O1` (configuration not stated) was run?
Answer: inactive

Question: For `CC(=O)OCC1OC(C#Cc2ccc(Cl)cc2)C=CC1OC(C)=O` (configuration not stated), which activity, negative = inhibition is on record?
Answer: inactive: -11.7% [at 13.5 µM] and inactive: -0.991% [at 13.5 µM]

Question: For `C/C(=C\c1ccc(C)o1)C(=O)c1c(C)cc(C)[nH]c1=O`, which Potency is on record?
Answer: inconclusive [inhibitor, single point]

Question: With `Cn1c(=O)c2c(nc(Br)n2CCSc2nc3ccccc3o2)n(C)c1=O` as the compound, how does the Potency read?
Answer: inconclusive [inhibitor, single point]

Question: With `Cc1ccc(NC(=O)CSC2=NCCN2)cc1` as the compound, how does the Potency read?
Answer: inactive

Question: With `CC(Oc1ccc(Cl)cc1)c1ccc(C#N)c(=O)[nH]1` (configuration not stated) as the compound, how does the Potency read?
Answer: inconclusive [inhibitor, single point]

Question: `CS(=O)(=O)N1CCN(C(=O)c2ccc(-c3ccccc3)cc2)CC1` was tested. Which Potency did it give?
Answer: inactive

Question: `Cc1ccc(C(=O)CN(C(=O)c2ccc(Cl)c(Cl)c2)N2C(=O)C3CCCCC3C2=O)cc1C` (configuration not stated) was tested. Which Potency did it give?
Answer: inconclusive [inhibitor, single point]

Question: For `CCOC(=O)COc1c(Cl)cc(C2NC(=S)NC(c3ccccc3)=C2C(C)=O)cc1OCC` (configuration not stated), which Potency is on record?
Answer: inactive

Question: How did the Potency turn out when `CC(=O)c1ccccc1OCCOCCOc1ccccc1C(C)=O` was run?
Answer: inconclusive [inhibitor, single point]

Question: Which Potency does the source give for `CCCCC/C=C\C[C@H](O)/C=C/C=C/C=C/[C@@H](O)CCCC(=O)O` here?
Answer: inactive

Question: `COc1ccc([N+](=O)[O-])cc1/C=N/NC(=O)CNC(=O)c1cccc(F)c1` was tested. Which Potency did it give?
Answer: inconclusive [inhibitor, single point]

Question: For `COc1ccc(-n2cc(CN(C)C3CCOCC3)c(-c3cccc(F)c3)n2)cc1`, which Potency is on record?
Answer: inconclusive [inhibitor, single point]

Question: `CC(=O)c1cccc(NC(=O)Cn2nc(-c3ccc(Cl)cc3)ccc2=O)c1` was tested. Which Potency did it give?
Answer: active: 7.94 µM

Question: Which Potency does the source give for `O=C(COC(=O)c1cnccn1)c1ccc2c(c1)CCCC2` here?
Answer: active: 28.2 µM

Question: With `OC(CNCc1ccccc1)Cn1ccc2ccccc21` (configuration not stated) as the compound, how does the Potency read?
Answer: inconclusive [inhibitor, single point]

Question: How did the Potency turn out when `O=C(Nc1ccccc1N1CCOCC1)c1cccnc1Cl` was run?
Answer: inactive

Question: `O=C1N=c2ccccc2=C1c1sc(=S)n(-c2ccc(O)cc2)c1O` was tested. Which Potency did it give?
Answer: inactive

Question: `CCCNC(=O)CN(Cc1ccccc1F)S(=O)(=O)c1ccc(C)cc1` was tested. Which Potency did it give?
Answer: inactive

Question: For `COC(=O)CC1C(C)(C)C(=O)C2CC3C4=CC(=O)OC(c5ccoc5)[C@]4(C)CCC3[C@@]1(C)C2=O` (some centres not stated), which Potency is on record?
Answer: inactive

Question: Which Potency does the source give for `O=C(N/N=C/c1c(Cl)cccc1Cl)c1cccc(F)c1` here?
Answer: inactive

Question: How did the Potency turn out when `O=C(Nc1nccs1)c1sc2cc(Cl)ccc2c1Cl` was run?
Answer: inconclusive [inhibitor, single point]

Question: Which Potency does the source give for `Cc1ccc(/C=N/n2c(COc3ccccc3)n[nH]c2=S)s1` here?
Answer: inconclusive [inhibitor, single point]

Question: Which Potency does the source give for `O=C(CSc1nnc2c(Cl)cc(C(F)(F)F)cn12)NCc1ccc(F)cc1` here?
Answer: inconclusive [inhibitor, single point]

Question: How did the Potency turn out when `N=c1sccn1CC(=O)Nc1ccc(SC(F)F)cc1` was run?
Answer: inconclusive [inhibitor, single point]

Question: `CC(=O)Nc1ccc(/C(C)=N/NC(=O)c2ccc(CN3CCOCC3)cc2)cc1` was tested. Which Potency did it give?
Answer: inconclusive [inhibitor, single point]

Question: For `CCC1=C(OC(=O)N(CC)CC)N2C(=O)OC(=NCCc3c[nH]c4ccccc34)[C@]2(C)[C@H]2C1=CC[C@H]1C(=O)N(CC(=O)OC)C(=O)[C@H]12`, which Potency is on record?
Answer: inconclusive [inhibitor, single point]

Question: Which Potency does the source give for `O=C(Cc1cccs1)Nc1ccc(-c2nc3ccccc3[nH]2)cc1` here?
Answer: inconclusive [inhibitor, single point]

Question: How did the Potency turn out when `O=C(Nc1ccc2c(c1)OCO2)C1CC(=O)N(CCc2ccccc2)C1` (configuration not stated) was run?
Answer: inactive

Question: For `O=C(/N=C1/c2ccccc2CN1c1ccccc1)Nc1ccccc1`, which Potency is on record?
Answer: inactive

Question: Which Potency does the source give for `CCOC(=O)COc1ccc2c(c1)C(=O)CC1(CCN(C(C)=O)CC1)O2` here?
Answer: inconclusive [inhibitor, partial curve]

Question: `CCOC(=O)c1[nH]cnc1C(=O)Nc1ccccn1` was tested. Which Potency did it give?
Answer: active: 0.251 µM

Question: Which Potency does the source give for `O=C(COC(=O)c1ccccc1Br)NCCc1ccc(F)cc1` here?
Answer: inconclusive [inhibitor, single point]

Question: `CNC(=O)NC(=O)C(C)Oc1ccccc1F` (configuration not stated) was tested. Which Potency did it give?
Answer: inactive

Question: Which Potency does the source give for `Cc1onc(-c2ccccc2)c1C(=O)N/N=C/c1c[nH]c2ccccc12` here?
Answer: inconclusive [inhibitor, partial curve]

Question: With `CCCn1cnc2c(sc3nc4c(cc32)CSC(C)(C)C4)c1=O` as the compound, how does the Potency read?
Answer: active: 0.562 µM

Question: For `COC(=O)C(C(=O)OC)C(Cc1cc(F)cc(F)c1F)NC=O` (configuration not stated), which Potency is on record?
Answer: inactive

Question: Which Potency does the source give for `O=C(COC(=O)c1ccc(NS(=O)(=O)c2cccs2)cc1)NCC1CCCO1` (configuration not stated) here?
Answer: inconclusive [inhibitor, single point]

Question: Which Potency does the source give for `Cc1cccc(-n2nc3c(c2NC(=O)CCC2CCCCC2)CS(=O)C3)c1C` (configuration not stated) here?
Answer: inconclusive [inhibitor, partial curve, poor fit]

Question: For `C=CCn1c(CCSCc2ccccc2)n[nH]c1=S`, which Potency is on record?
Answer: inconclusive [inhibitor, partial curve]

Question: Which Potency does the source give for `CCC1CCCN1Cn1cnc2c([nH]c3ccc(Cl)cc32)c1=O` (configuration not stated) here?
Answer: inconclusive [inhibitor, single point]

Question: Which Potency does the source give for `COc1cccc(C2NC(=O)NC(C)=C2C(=O)OCC2CCCO2)c1` (configuration not stated) here?
Answer: inactive

Question: `Cc1ccc(-n2[nH]c(C)c(C=Nc3ccc(S(=O)(=O)Nc4nc(C)cc(C)n4)cc3)c2=O)c(C)c1` was tested. Which Potency did it give?
Answer: inactive

Question: How did the Potency turn out when `CCOC(=O)C1=C(c2cccc(F)c2)NC(=S)NC1C` (configuration not stated) was run?
Answer: active: 1.58 µM

Question: `Cc1c(NC(=O)c2cccc(-c3cc4ccccc4oc3=O)c2)cccc1-c1nc2ncccc2o1` was tested. Which Potency did it give?
Answer: inconclusive [inhibitor, partial curve]

Question: Which Potency does the source give for `CS(=O)(=O)N(CC(=O)NCc1ccncc1)c1cc(Cl)ccc1Cl` here?
Answer: inactive

Question: How did the Potency turn out when `CC1(C)Cc2ccccc2-c2nnc(-c3ccco3)n21` was run?
Answer: inconclusive [inhibitor, single point]

Reference: PubChem BioAssay AID1030 (National Center for Advancing Translational Sciences (NCATS), 2008)
